Hit rate of the full screen: of about 310,000 compounds, about 14,000 (4.5%) showed an effect of 50% or more. Effects have a minus sign here. This is one part of the list.
Molecular target: human ether-à-go-go-related gene (hERG) potassium channel (human, UniProt Q12809)
Experiment: primary screen, population patch clamp on CHO cells stably expressing hERG
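Note: peak tail current of the secondary pulse compared with the same well before compound.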

human ether-à-go-go-related gene (hERG) potassium channel, sequence (Q12809 whole entry, looked up): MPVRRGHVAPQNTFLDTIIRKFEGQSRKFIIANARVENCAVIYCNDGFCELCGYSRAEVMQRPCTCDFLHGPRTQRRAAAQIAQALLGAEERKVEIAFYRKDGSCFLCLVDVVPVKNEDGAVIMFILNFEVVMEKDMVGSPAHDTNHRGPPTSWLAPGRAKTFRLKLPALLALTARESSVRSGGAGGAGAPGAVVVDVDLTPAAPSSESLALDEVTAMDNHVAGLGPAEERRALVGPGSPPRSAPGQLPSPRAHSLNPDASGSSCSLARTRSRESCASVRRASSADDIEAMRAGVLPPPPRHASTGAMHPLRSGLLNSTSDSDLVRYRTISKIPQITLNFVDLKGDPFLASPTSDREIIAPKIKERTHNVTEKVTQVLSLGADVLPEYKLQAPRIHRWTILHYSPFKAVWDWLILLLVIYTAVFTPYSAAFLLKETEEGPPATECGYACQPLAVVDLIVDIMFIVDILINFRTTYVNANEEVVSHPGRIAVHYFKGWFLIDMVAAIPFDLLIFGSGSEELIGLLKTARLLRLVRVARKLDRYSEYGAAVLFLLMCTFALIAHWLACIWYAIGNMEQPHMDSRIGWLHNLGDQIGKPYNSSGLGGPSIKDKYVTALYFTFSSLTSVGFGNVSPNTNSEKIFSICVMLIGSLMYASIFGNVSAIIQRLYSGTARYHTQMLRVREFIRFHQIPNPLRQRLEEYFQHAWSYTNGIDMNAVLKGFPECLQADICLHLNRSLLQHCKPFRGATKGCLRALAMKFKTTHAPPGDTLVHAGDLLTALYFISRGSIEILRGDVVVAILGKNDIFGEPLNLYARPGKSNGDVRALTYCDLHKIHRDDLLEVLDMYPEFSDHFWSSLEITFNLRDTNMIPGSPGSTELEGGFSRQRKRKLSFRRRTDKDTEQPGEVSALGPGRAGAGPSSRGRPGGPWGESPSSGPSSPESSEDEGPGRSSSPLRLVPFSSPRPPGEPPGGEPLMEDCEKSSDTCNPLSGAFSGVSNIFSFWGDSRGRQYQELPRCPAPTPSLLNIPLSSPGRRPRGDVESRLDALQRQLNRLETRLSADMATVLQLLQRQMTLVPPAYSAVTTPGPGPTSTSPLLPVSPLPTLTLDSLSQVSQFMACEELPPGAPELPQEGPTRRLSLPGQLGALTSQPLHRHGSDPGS

In order of falling “hERG current change (%, negative = inhibition) at 10uM” value:
1. CCc1cccc(NS(=O)(=O)c2ccc3c(c2)NC(=O)CC(=O)N3)c1  31.8%
2. CCN(CC(O)COc1ccc(OCC(O)CN(CC)C2CCCCC2)cc1)C1CCCCC1 (stereo not drawn)  22.2%
3. CC(C)(C)c1ccccc1OCC(=O)Nc1ncn[nH]1  21.5%
4. NC(=O)Nc1ccc(C(=O)OCC(=O)NC2CCCCC2)cc1  21.4%
5. Cc1cc(C)cc(Nc2c(F)c(F)c(F)c(F)c2C(=O)O)c1  20.9%
6. COc1ccc(/C=C2/NC(=O)CNC2=O)cc1  20.7%
7. CC[C@@]1(c2ccccc2C)C(=O)N(C(=O)OC)N1C(=O)OC  20.3%
8. CSc1ccccc1NC(=O)COC(=O)CCc1ccccc1  18.3%
9. O=C(CSc1nc(C2CC2)nc2ccccc12)Nc1ccccc1Cl  17.9%
10. CC(C)=CCc1c(O)cc(O)c2c(=O)c(O[C@@H]3O[C@@H](C)[C@H](O)[C@@H](O)[C@H]3O)c(-c3ccc(O)cc3)oc12  17.1%
11. C=CCn1c(SCC(C)=O)nc2scc(-c3ccco3)c2c1=O  16.5%
12. O=C1C(=O)N(Cc2ccco2)C(c2cccc(Cl)c2)/C1=C(\O)c1ccc2c(c1)OCCO2 (stereo not drawn)  15.8%
13. COc1ccc(C2CC(c3cccs3)=NN2C(=O)CSc2nc3ccccc3o2)cc1 (stereo not drawn)  15.5%
14. Cc1cc(=O)n2[nH]c(NCc3ccccc3F)nc2n1  15.2%
15. Cn1c(=O)cc(NCc2ccccc2)[nH]c1=O  15%
16. CN1CCN(C(=O)CCc2ccc(S(=O)(=O)NC3CCCCC3)cc2)CC1  14.3%
17. COc1cc(C(=O)N/N=C/c2coc3ccc(Cl)cc3c2=O)ccc1O  14.2%
18. COc1cnn(-c2cccc(Cl)c2)c(=O)c1Cl  13.5%
19. CCOC(=O)N1CCN(C2CC(=O)N(c3ccccc3)C2=O)CC1 (stereo not drawn)  13.5%
20. Cc1c(CN2CCC(n3nccc3NC(=O)CCc3ccccc3)CC2)cnn1C  12.6%
21. COc1ccc(NC(=O)c2cc3n(n2)C(C(F)(F)F)CC(c2ccc(OC)cc2)N3)cc1 (stereo not drawn)  12.4%
22. COc1ccc(N2CC(O)=C(c3nc(-c4ccccc4)cs3)C2=N)cc1  12.3%
23. O=C(COC(=O)c1cc(NS(=O)(=O)c2cccs2)ccc1O)Nc1ccccc1  12.1%
24. CN(C)c1ccc(N2C(=NC(=O)C3CCCO3)SC3CS(=O)(=O)CC32)cc1 (stereo not drawn)  11.1%
25. Nc1ncnc(Nc2ccccc2Cl)n1  9.95%
26. OCCOCCOc1cccc2[nH]ccc12  9.29%
27. Cc1ccc(S(=O)(=O)N(C)c2ccc(OC(=O)CN3C(=O)NC4(CCCC4)C3=O)cc2)cc1C  9.26%
28. COC(=O)C(CC(C(=O)OC)C(=O)OC)C(=O)OC  8.79%
29. Cn1c(SCC(=O)NC2(C#N)CCCCC2)nnc1-c1cccnc1  8.7%
30. Cc1c(/C(O)=C2/C(=O)C(=O)N(Cc3cccnc3)C2c2ccccn2)cnn1-c1ccccc1 (stereo not drawn)  8.54%
31. COCCNC(=O)c1onc(CSc2ccccc2F)c1C(=O)O  7.29%
32. C=CCn1c(SCC(=O)NC(=O)NCc2ccco2)nc2sc(C)c(C)c2c1=O  6.5%
33. Cc1onc(-c2c(Cl)cccc2Cl)c1C(=O)NC1C(=O)N2C1SC(C)(C)C2C(=O)[O-].[Na+] (stereo not drawn)  5.57%
34. CN(C)c1ccc(NC(=O)Cn2c(=O)n(Cc3ccccc3)c(=O)c3ccccc32)cc1  5.49%
35. O=[N+]([O-])c1nn(-c2ccc3c(c2)OCCO3)n(O)c1=Nc1ccc(Cl)cc1  5.22%
36. O=C(O)CCc1ccc(-c2ccc(Cl)cc2)n1CCC(=O)O  5.2%
37. CN(C(=O)c1ccc(S(=O)(=O)N2CCCC2)cc1)C1CCCCC1  4.61%
38. CCOC(=O)c1oc2ccccc2c1CSc1nnnn1-c1ccc(C)cc1  3.63%
39. O=C(NNc1ccccc1Br)C(O)(c1cccc(C(F)(F)F)c1)c1cccc(C(F)(F)F)c1  3.28%
40. O=C(CN1C(=O)c2cccc3cccc(c23)C1=O)N1CCOCC1  3.27%
41. CCOc1ccc(-n2nnnc2SCC(=O)NC2CCCC2)cc1  3.2%
42. CCC(=O)N1CCc2cc(S(=O)(=O)CCC(=O)N3CCN(c4ccccc4)CC3)ccc21  3.15%
43. CC(=O)Nc1ccc(S(=O)(=O)N2CCN(C(=O)N3CCCCCC3)CC2)cc1  1.64%
44. O=C(NCC1CCCO1)c1onc(CSc2ccc(F)c(F)c2)c1C(=O)O (stereo not drawn)  1.63%
45. Cc1cccc(NC(=O)C2CC(=O)N/C(=N/N=C/c3ccco3)S2)c1 (stereo not drawn)  1.47%
46. Cc1ccc(Nc2ncc3c(n2)CC(C)CC3=O)c(C)c1 (stereo not drawn)  0.876%
47. Cc1ccc(C)c2[nH]c(=O)c(CCNC(=O)Cc3cccs3)cc12  -0.656%
48. CCCCn1c(N)c(N(CCOC)C(=O)COc2c(C)cccc2C)c(=O)[nH]c1=O  -0.678%
49. O=C(Nc1ccc(F)c(F)c1)c1ccc(F)c(S(=O)(=O)N2CCC3(CC2)OCCO3)c1  -1.01%
50. COC(=O)c1[nH]c2ccccc2c1NS(=O)(=O)c1ccc(F)c(C)c1  -1.32%
51. COc1ccc(C(=O)Nc2ccccc2-c2ccccc2)cc1Cl  -1.38%
52. O=C(COc1ncnc2sccc12)Nc1ccc2c(c1)OCCO2  -1.64%
53. CSc1nccc(NC(=O)c2ccc(C(C)(C)C)cc2)n1  -2.01%
54. CCOC(=O)N1CCC(NC(=O)CN2C(=O)CSc3ncccc32)CC1  -2.15%
55. Cn1c(COc2ccc3ccccc3c2)nnc1SCC(=O)OC1CCCCC1  -2.58%
56. CC1CCN(S(=O)(=O)c2ccc3c(c2)CC(C)N3C(=O)C2CCC2)CC1 (stereo not drawn)  -2.61%
57. CS(=O)(=O)N1CCN(c2ccc(NC(=O)c3ccc(Br)o3)cc2)CC1  -2.68%
58. O=C(CNS(=O)(=O)c1ccc(Cl)cc1)OCC(=O)N1CCCc2ccccc21  -2.96%
59. CN(C)CCCN(C(=O)CCc1ccccc1)c1nc2ccc(Br)cc2s1.Cl  -3.24%
60. CCOC(=O)c1ccc(NC(=O)N2CC(C)OC(C)C2)cc1 (stereo not drawn)  -3.62%
61. CCN(Cc1nc(-c2ccccc2)no1)C(=O)c1ccc2c(c1)OCO2  -4.48%
62. CC(/C=C/c1ccc2c(c1)OCO2)=N/NC(=O)C1COc2ccccc2O1 (stereo not drawn)  -5.9%
63. O=C1CSC(=O)N1CC(O)COc1ccc(Cl)cc1 (stereo not drawn)  -6.72%
64. CSc1nnc(-c2ccc(O)cc2)n1C  -8.16%
65. CC12CCC(C(=O)NCc3ccc4c(c3)OCO4)(CC1=O)C2(C)C (stereo not drawn)  -8.73%
66. Cc1oc2ccc(OS(C)(=O)=O)cc2c1C(=O)OC(C)C  -9.09%
67. Cc1ccn2cc(CCNC(=O)C3CC=CCC3C(=O)O)nc2c1 (stereo not drawn)  -9.24%
68. Cc1c(N=Cc2ccncc2)c(=O)n(-c2ccccc2)n1C  -9.42%
69. CC1CCCC(NC(=O)CCNC(=O)c2ccc(Cl)cc2)C1C (stereo not drawn)  -10.3%
70. Cc1nc(Cl)c(C#N)c2c1CCCC2  -10.9%
71. COc1ccc(CN(CCC(c2ccccc2)C2CCOC(C)(C)C2)C(C)=O)cc1 (stereo not drawn)  -11.6%
72. Cc1ccc(NC(=O)CN(C)C(=O)COc2cccc3cccnc23)cc1  -12.4%
73. COc1ccc(CNc2nc3nc(C)cc(C)n3n2)cc1OC  -12.5%
74. CCN(CC)c1ccc2cc(S(=O)(=O)c3ccc(Cl)cc3)c(=O)oc2c1  -13.3%
75. CCOC(=O)C(CC)n1cnc2c(nnn2-c2ccccc2)c1=O (stereo not drawn)  -14.2%
76. CCCC(=O)Nc1cccc(C(=O)Nc2ccccc2OCC)c1  -14.7%
77. CCCCN(C)C(=O)c1oc2ccc(S(=O)(=O)N3CCCCCC3)cc2c1C  -15.9%
78. Fc1ccc(C2=NOC(c3nnc(-c4ccccc4)o3)C2)cc1 (stereo not drawn)  -16.1%
79. COc1ccc(C(=O)NC(=S)N2CCCCC2c2cccnc2)cc1OC (stereo not drawn)  -16.7%
80. O=C(C1CCCN(S(=O)(=O)c2cc(Cl)ccc2Cl)C1)N1CCCC1 (stereo not drawn)  -19.5%
81. C=CCN(c1ccc(F)cc1)S(=O)(=O)c1cc(C(=O)OCC(=O)N(C)C2CCS(=O)(=O)C2)ccc1Cl (stereo not drawn)  -31.3%
82. O=C(Nc1cccc(F)c1)c1cc(S(=O)(=O)N2CCOCC2)ccc1N1CCCC1  -34.2%
83. CCOC(=O)CSc1nnc(-c2cccs2)n1-c1ccccc1  -42.8%
84. COc1ccc(NC(C)=O)cc1S(=O)(=O)N1CCc2ccccc21  -45.2%
85. O=C(c1ccco1)N1CCN(C(=O)c2cc3sccc3n2Cc2ccccc2)CC1  -55.6%
86. CN1CCN(CC(=O)Nc2ccc(Cl)cc2Cl)CC1  -69.4%
87. CCOCCCN(C)C1CCN(C(=O)c2oc3ccccc3c2NC(=O)c2cccc([N+](=O)[O-])c2)CC1  -79.7%

From publication PMC4336329 (PLoS ONE, 2015)
